One may read the Kd as the free concentration of one partner at which half of the binding sites on the other are occupied at equilibrium, for simple one-to-one binding. A high value points to a looser complex.

The labels stand for the following.
T1: human IL-2Rα receptor, extracellular domain with 6×His Tag (human, UniProt P01589 22-240)
T1 construct: it is read as the whole construct, not the tag alone; also called human IL-2Rα subunit; recombinant monomer IL-2Rα subunit
T1 sequence: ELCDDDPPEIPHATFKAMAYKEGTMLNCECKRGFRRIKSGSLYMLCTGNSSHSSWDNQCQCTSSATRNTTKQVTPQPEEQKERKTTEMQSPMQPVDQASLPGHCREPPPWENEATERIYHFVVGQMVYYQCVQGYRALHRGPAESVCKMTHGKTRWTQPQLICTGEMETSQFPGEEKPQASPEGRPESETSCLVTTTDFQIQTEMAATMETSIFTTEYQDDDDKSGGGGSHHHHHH

T2: CD25 on the surface of NK92 cells (human NK cell line) (human, UniProt P01589 22-272)
T2 sequence (looked up): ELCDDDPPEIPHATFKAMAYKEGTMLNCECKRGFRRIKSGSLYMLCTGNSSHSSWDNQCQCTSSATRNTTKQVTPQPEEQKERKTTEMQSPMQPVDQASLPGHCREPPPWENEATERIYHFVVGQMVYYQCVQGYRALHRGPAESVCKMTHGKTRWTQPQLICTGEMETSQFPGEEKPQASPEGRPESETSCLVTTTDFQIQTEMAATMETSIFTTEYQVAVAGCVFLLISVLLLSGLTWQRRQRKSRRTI

B1: IL-2-HSA (T3A) wild type (ligand)
chain: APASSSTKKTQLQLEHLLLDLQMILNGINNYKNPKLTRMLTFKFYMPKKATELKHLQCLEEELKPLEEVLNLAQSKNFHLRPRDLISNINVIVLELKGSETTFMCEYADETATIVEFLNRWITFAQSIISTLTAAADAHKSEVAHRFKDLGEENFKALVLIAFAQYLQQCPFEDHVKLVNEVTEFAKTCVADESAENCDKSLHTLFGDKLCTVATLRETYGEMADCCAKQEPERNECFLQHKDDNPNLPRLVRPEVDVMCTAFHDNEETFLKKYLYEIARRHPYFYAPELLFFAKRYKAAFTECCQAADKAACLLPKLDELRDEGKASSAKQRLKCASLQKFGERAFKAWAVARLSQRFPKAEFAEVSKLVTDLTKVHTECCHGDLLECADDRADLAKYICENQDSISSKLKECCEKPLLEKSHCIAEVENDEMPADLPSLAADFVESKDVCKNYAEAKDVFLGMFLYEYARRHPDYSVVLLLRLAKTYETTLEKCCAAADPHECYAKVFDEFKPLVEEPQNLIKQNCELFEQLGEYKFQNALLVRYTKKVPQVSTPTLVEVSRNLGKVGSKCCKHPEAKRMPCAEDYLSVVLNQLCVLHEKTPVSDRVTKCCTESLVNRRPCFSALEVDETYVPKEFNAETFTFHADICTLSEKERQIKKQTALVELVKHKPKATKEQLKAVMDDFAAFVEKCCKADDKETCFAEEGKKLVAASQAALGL
notes: also called wild-type IL-2-HSA; IL-2-HSA wild type
B2: IL-2gm4 (T3A, K49N, A73T), HSA tag (ligand)
chain: APASSSTKKTQLQLEHLLLDLQMILNGINNYKNPKLTRMLTFKFYMPKNATELKHLQCLEEELKPLEEVLNLTQSKNFHLRPRDLISNINVIVLELKGSETTFMCEYADETATIVEFLNRWITFAQSIISTLTAAA[about 600 residues skipped]
notes: also called IL-2gm4-HSA
B3: IL-2gm1 (T3A, M39N), HSA tag (ligand)
chain: APASSSTKKTQLQLEHLLLDLQMILNGINNYKNPKLTRNLTFKFYMPKKATELKHLQCLEEELKPLEEVLNLAQSKNFHLRPRDLISNINVIVLELKGSETTFMCEYADETATIVEFLNRWITFAQSIISTLTAAA[about 600 residues skipped]
notes: also called IL-2gm1-HSA
B4: IL-2gm6 (T3A, M39N, K49N, A73T, D109N), HSA tag (ligand)
chain: APASSSTKKTQLQLEHLLLDLQMILNGINNYKNPKLTRNLTFKFYMPKNATELKHLQCLEEELKPLEEVLNLTQSKNFHLRPRDLISNINVIVLELKGSETTFMCEYANETATIVEFLNRWITFAQSIISTLTAAA[about 600 residues skipped]
notes: also called IL-2gm6-HSA
B5: IL-2gm1c (T3A, M39Q), HSA tag (ligand)
chain: APASSSTKKTQLQLEHLLLDLQMILNGINNYKNPKLTRQLTFKFYMPKKATELKHLQCLEEELKPLEEVLNLAQSKNFHLRPRDLISNINVIVLELKGSETTFMCEYADETATIVEFLNRWITFAQSIISTLTAAA[about 600 residues skipped]
notes: HSA fusion; also called IL-2gm1c-HSA
B6: IL-2gm1a (T3A, M39D), HSA tag (ligand)
chain: APASSSTKKTQLQLEHLLLDLQMILNGINNYKNPKLTRDLTFKFYMPKKATELKHLQCLEEELKPLEEVLNLAQSKNFHLRPRDLISNINVIVLELKGSETTFMCEYADETATIVEFLNRWITFAQSIISTLTAAA[about 600 residues skipped]
notes: HSA fusion; also called IL-2gm1a-HSA
B7: IL-2gm1b (T3A, M39E), HSA tag (ligand)
chain: APASSSTKKTQLQLEHLLLDLQMILNGINNYKNPKLTRELTFKFYMPKKATELKHLQCLEEELKPLEEVLNLAQSKNFHLRPRDLISNINVIVLELKGSETTFMCEYADETATIVEFLNRWITFAQSIISTLTAAA[about 600 residues skipped]
notes: HSA fusion; also called IL-2gm1b-HSA
B8: IL-2gm1d (T3A, M39A), HSA tag (ligand)
chain: APASSSTKKTQLQLEHLLLDLQMILNGINNYKNPKLTRALTFKFYMPKKATELKHLQCLEEELKPLEEVLNLAQSKNFHLRPRDLISNINVIVLELKGSETTFMCEYADETATIVEFLNRWITFAQSIISTLTAAA[about 600 residues skipped]
notes: HSA fusion; also called IL-2gm1d-HSA

One assay has as its target T1, human IL-2Rα receptor, extracellular …. Description: SPR, Biacore 8K, IL-2Rα immobilised on the chip, dynamic state (1:1 fit). (In general: Surface plasmon resonance follows binding to a sensor surface in real time, without labels.)
In turn, B1 returned a dissociation constant Kd of 106 nM.
As for B2, binding was put at a Kd of 35.4 nM.

Another assay deals with T2, CD25 on the surface of NK92 cells …. Description: cell-based or functional assay.
In the case of B3, the “specific activity to stimulate the proliferation of NK92 cells, compared with IL-2-HSA” value is 1.07%.
B2: the “specific activity to stimulate the proliferation of NK92 cells, compared with IL-2-HSA” value was 1.78%.
On the same count and under the same terms, then B4, with 0.087%.

The next assay deals with T1, human IL-2Rα receptor, extracellular …. Description: Biacore 8K, IL-2Rα immobilised on the chip; steady state and dynamic state (c2 and c3).
For B5, the binding result is given as “no binding (tested: 200 nM)”.
The same measure, in the same setting: then B3, with “no binding (tested: 200 nM)”.
Still for that read-out and setting: then B6, with “no binding (tested: 200 nM)”.
Same read-out and setting: then B7, with “no binding (tested: 200 nM)”; and B4, with “no binding (tested: 200 nM)”.

A further assay deals with T3, human IL-2Rβγ heterodimerization receptor (IL-2Rβ ECD-Knobs Fc / IL-2Rγ ECD-Holes Fc) (human).
T3 construct: they are read as the whole fusion chains, not the Fc fragments alone. hIgG1 Fc, knobs into holes; also called human recombinant IL-2Rβγ heterodimer; human hIL-2Rβ, γ ECD-N-hIgG1Fc
Description: SPR, Biacore 8K, IL-2Rβγ-Fc heterodimer captured on Protein A chip, dynamic state (1:1 fit).
On to B1, for which the Kd stood at 15.3 nM.
Same read-out and setting: then B5, with 38.4 nM.
Molecule B3 registered a Kd of 13.8 nM.
In turn, B2 had a dissociation constant (Kd) of 33 nM.
B6 came in with a Kd of 36.5 nM.
Same read-out and setting: the result for B8 reads 23 nM; that for B7, 28.3 nM.
The same measure, in the same setting: then B4, with 28.9 nM.

Another assay concerns the target T1, human IL-2Rα receptor, extracellular …. Description: SPR, Biacore 8K, IL-2Rα immobilised on the chip, steady state.
B1: the affinity, expressed as Kd, was 55.6 nM.
In turn, B2 displayed a Kd of 72.6 nM.
On the same count and under the same terms, then B8, with 66.2 nM.

For the origin of these results see patent publication US20220227829A1 (SHANGHAI GP BIOTECH, published 2022).
